In the supplement of paper PMC4604168 (melanoma cell lines):
The other results are listed elsewhere or left out. Repeats are few or missing, and single values can be far off.

tested on: COLO800; experiment: cell count relative to DMSO control; melanoma cells; higher = more viable cells; details: library dose: low library concentration; 72 h
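Note: cell number obtained by counting DAPI-stained nuclei in high-throughput microscope images with image analysis software, screen run in 1,536-well plates.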

Row | Compound | cell count [%]
1 | Cn1cnc2c(F)c(Nc3ccc(Br)cc3Cl)c(C(=O)NOCCO)cc21 [selumetinib] + O=C(Oc1ccc([N+](=O)[O-])cc1)N1CCC(C(O)(c2ccc3c(c2)OCO3)c2ccc3c(c2)OCO3)CC1 [JZL184] (first compound 0.015 µM, partner dose 1 µM) | 172
2 | Nc1ncn([C@H]2C[C@H](O)[C@@H](CO)O2)c(=O)n1 [decitabine] + O=C(Oc1ccc([N+](=O)[O-])cc1)N1CCC(C(O)(c2ccc3c(c2)OCO3)c2ccc3c(c2)OCO3)CC1 [JZL184] (first compound 0.1 µM, partner dose 1 µM) | 141
3 | O=C(/C=C/c1cccnc1)NCCCCC1CCN(C(=O)c2ccccc2)CC1 + Cc1cc(SCc2sc(-c3ccc(C(F)(F)F)c(F)c3)nc2C)ccc1OCC(=O)O [GW0742] (first compound 0.01 µM, partner dose 2 µM) | 45.9
4 | CS(=O)(=O)c1ccc(C(=O)Nc2ccc(Cl)c(-c3ccccn3)c2)c(Cl)c1 [vismodegib] + C/C(O)=C(\C#N)C(=O)Nc1cc(Br)ccc1Br [LFM-A13] (first compound 1 µM, partner dose 2 µM) | 103
5 | CS(=O)(=O)CCNCc1ccc(-c2ccc3ncnc(Nc4ccc(OCc5cccc(F)c5)c(Cl)c4)c3c2)o1 [lapatinib] + Cc1cc(SCc2sc(-c3ccc(C(F)(F)F)c(F)c3)nc2C)ccc1OCC(=O)O [GW0742] (first compound 0.8 µM, partner dose 2 µM) | 81.2
6 | NC1(c2ccc(-c3nc4ccn5c(=O)[nH]nc5c4cc3-c3ccccc3)cc2)CCC1 + C/C(O)=C(\C#N)C(=O)Nc1cc(Br)ccc1Br [LFM-A13] (first compound 0.4 µM, partner dose 2 µM) | 106
7 | CC(=O)c1c(C)c2cnc(Nc3ccc(N4CCNCC4)cn3)nc2n(C2CCCC2)c1=O [palbociclib] + O=C(Oc1ccc([N+](=O)[O-])cc1)N1CCC(C(O)(c2ccc3c(c2)OCO3)c2ccc3c(c2)OCO3)CC1 [JZL184] (first compound 0.04 µM, partner dose 1 µM) | 95.8
